Several values for one entry are separate records, joined by “and”; a condition that tells them apart may be missing. Identical values can stand only once. The campaign covered roughly 50,000 compounds. About 800 (1.6%) showed an effect of 50% or more. The list shows a part of the results.

The target in the assay is Bcl-2-like protein 10 (Homo sapiens) (UniProt Q9HD36). Kind of assay: TR3 peptide-Bcl-B binding displacers, biochemical primary FP assay, phenotype converters (AID 1240).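 Note: 0% = Bcl-B with tracer peptide and DMSO and 100% = tracer peptide lacking Bcl-B.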 The settings on record: GST-Bcl-B / FITC-TR3 peptide fluorescence polarization; stronger effect = higher value; compound at 3.75 mg/L.
Sequence of UniProt Q9HD36 (Q9HD36 whole entry, looked up): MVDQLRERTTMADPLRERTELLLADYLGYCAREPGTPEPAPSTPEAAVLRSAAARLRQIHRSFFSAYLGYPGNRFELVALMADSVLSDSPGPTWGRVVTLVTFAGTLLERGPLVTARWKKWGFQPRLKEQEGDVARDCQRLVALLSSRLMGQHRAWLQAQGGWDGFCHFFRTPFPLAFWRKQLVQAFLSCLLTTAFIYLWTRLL
Consider `O=[N+]([O-])c1ccc(Nc2nc(NCCN3CCOCC3)nc(Nc3ccc(Cl)cc3)n2)cc1`, for which the displacement amounted to 7.2%.
To `COc1ccc(-c2nc(=S)c3c(n2CCO)CCCC3)cc1` belongs -7.3%.
The value for `CN(C)/C=C(/Cl)C=C1C(=O)c2ccccc2C1=O` was 6.1%.
To `CCOC(=O)c1c(NC(=O)c2ccccc2C)sc(C(=O)Nc2ccccc2F)c1C` belongs -5.2%.
Consider `C/C(=C\C(=O)c1ccccc1)Nc1ccc(Br)c(C)c1`, for which the displacement is -11.6%.
The value for `CC(C)OC(=O)c1ccc(NC(=O)COc2cc(Cl)ccc2Cl)cc1` was -2.3%.
To `CC(=O)Nc1ccc(S(=O)(=O)Nc2ccc(OCc3ccccc3)cc2)cc1` belongs 4%.
With `COC(=O)CSc1nc2sc3c(c2c(=O)n1-c1ccccc1)CC(C)CC3` (stereo not given), the displacement is -13.4%.
To `COc1ccc(/C=C2\C(=O)NC(=S)N(c3ccc(Br)cc3C)C2=O)c(C)c1` belongs 7.5%.
The value for `Cc1cc(=O)[nH]c(SCc2ccccc2)n1` was 12.7%; that for `Cc1ccc(N2NC(=O)/C(=C/c3ccc(N4CCOCC4)cc3)C2=O)cc1` was 0.5%; that for `CCCCN=C1CC(C)(C)C(C(=O)OC)C(O)=C1C(=O)CCC` (stereo not given) was 7.2%.
As to `O=C(CCCOc1ccc(Cl)cc1Cl)Oc1ccc(Cl)cc1Cl`, the displacement is -8.4%.
To `COc1ccc(C(=O)Nc2ccc(S(=O)(=O)Nc3nccc(C)n3)cc2)cc1[N+](=O)[O-]` belongs 9.5%; to `N/C(=N\OC(=O)c1ccc(Cl)cc1)c1ccccc1`, -11.5%.
On to `CC1=NN(c2ccc(S(N)(=O)=O)cc2)C(=O)/C1=C\c1cccc(Br)c1`, for which the displacement worked out at 4.5%.
To `O=C(COc1ccccc1)N1CCN(c2ccccc2)CC1` belongs 10.6%; to `CCCCNC(=O)Cn1nc(C(F)(F)F)cc1C`, -7.7%; to `O=C1NN(c2ccccc2)C(=O)/C1=C/c1cccc(OCc2ccc(F)cc2)c1`, 13.1%.
The value for `Cc1c(N2C(=O)CS/C2=N\N=C\c2ccc(Br)cc2)c(=O)n(-c2ccccc2)n1C` was -2.8%; that for `O=C(Nc1ccc(Cc2ccncc2)cc1)c1ccc(-c2cccc(Cl)c2)o1` was 3.8%.
To `O=C1CSC(=Nc2ccc(Br)cc2)N1` belongs -0.6% and 12.2%.
Turning to `CN1c2ccccc2N(C)C1c1ccc(Br)o1`, the displacement was -15.3%.
To `O=c1[nH]cc(N=Cc2ccc(Cl)cc2)c(=O)[nH]1` belongs -10.3%; to `CC(=O)Oc1ccccc1/C=C1\C=C(c2ccc(C)cc2)OC1=O`, -0.2%.
Consider `COc1ccc(C(NC(C)=O)NC(C)=O)cc1OC`, for which the displacement worked out at 6.3%.
To `CCOC(=O)c1c(NC(=O)c2ccc(C)o2)sc(C(C)=O)c1C` belongs -5.9%; to `Cc1ccc(NC(=O)C2C3C4CCC(C4)C23)cc1` (stereo not given), -12.9%.
The value for `Cc1ccc2c(c1)c1c3n2CCN(CCC#N)C3CCC1` (stereo not given) was 18.4%.
The value for `C=CCOc1ccc(C=C2C(=O)NC(=O)NC2=O)cc1OC` was 11.5%.
Turning to `COC(=O)c1ccc(C(=O)OC)c(NC(=O)CCN2C(=O)c3ccccc3C2=O)c1`, the displacement was determined as 0%.
To `Cc1oc(-c2ccccc2)cc1C(=O)Nc1ccc(N(C)C)cc1` belongs -0.2%; to `CCCOc1ccc(N2C(=O)CC(NCc3cccnc3)C2=O)cc1` (stereo not given), 1.7%.
To `CCOc1ccccc1NC(=O)c1c(NC(=O)c2ccccc2Cl)sc2c1CCC(C)C2` (stereo not given) belongs -11%; to `CCCOc1ccc(CCC(=O)O)cc1`, 6.3%; to `Cc1ccc2oc(-c3ccc(C)c(NC(=O)c4ccc(Cl)cc4Cl)c3)nc2c1`, -0.4%.
The value for `COc1cccc(-c2nc3cc(NC(=O)Cc4ccccc4)ccc3o2)c1` was -8.7%.
On to `O=C(O)c1cccc(NC(=O)c2ccc3ccccc3n2)c1`, for which the displacement is -1.9%.
To `CC(=O)Oc1ccc2c(c1)oc(=O)c1c3cc(OC(C)=O)c(OC(C)=O)cc3oc21` belongs 12.7%.
To `COc1ccc(/C=C/C(=O)Nc2ccc(OCc3ccccc3)cc2)cc1` belongs -2.2%.
The value for `O=[N+]([O-])c1ccc(-c2noc(-c3ccccc3Br)n2)cc1` was 4.3%.
Regarding `CC(C)Oc1ncnc2sc3c(c12)CCCC3`, the displacement was -2.4%.
For the compound `CC(=O)Nc1cccc(Oc2ccc3c(c2)C(=O)N(c2ccccc2)C3=O)c1`, the displacement amounted to 2.4%.
For `COc1ccc(N2C(=O)/C(=C/c3cc(C)n(-c4ccccc4)c3C)C(=O)NC2=S)cc1`, the displacement came to 7%.
To `CC(=O)Nc1c(-c2ccccc2)c(C)nn1Cc1ccccc1` belongs -13.6%; to `CC1=C(C(=O)OCc2ccccc2)C(c2ccccn2)C2=C(CCCC2=O)N1` (stereo not given), -2.3%.
As for `N#Cc1c(-c2cccc(Br)c2)cc(C2CC2)nc1N`, the displacement worked out at 2.3%.
The value for `COc1cc(/C=C2\C(=O)NC(=O)N(c3ccc(F)cc3)C2=O)ccc1OCc1cccc(F)c1` was -10.4%.
The value for `COc1ccc(C(NS(=O)(=O)c2ccc(C)c([N+](=O)[O-])c2)c2ccccc2)cc1` (stereo not given) was -8.1%; that for `Oc1ccc(/C=N/Nc2cc(N3CCCC3)nc(N3CCCC3)n2)cc1` was 12%.
On to `CCCSc1nsc(SCCC)c1C(N)=O`, for which the displacement was -7.4%.
To `COc1ccccc1Nc1ncnc2ccc(C)cc12` belongs 12%; to `CCOC(=O)c1sc(NC(=O)CN2CCCCC2)c(C(=O)OCC)c1C`, 1.2%; to `COC(=O)c1ccccc1NC(=S)NC(=O)c1ccco1`, 11.2%.
To `O=C(Nc1nc(-c2ccc(Cl)cc2)cs1)C12CC3CC(CC(C3)C1)C2` belongs -5.9%; to `C/C(=N\OCc1nc2c3c4c(sc3ncn2n1)CCCC4)c1ccc(Br)cc1`, -8%.
To `Cc1nnc(NC(=O)Nc2ccc(Cl)c(Cl)c2)s1` belongs 16.6%.
Take `CC1(C)CC(=O)C2=C(C1)OC1=C(C(=O)CC(C)(C)C1)C2c1cccc([N+](=O)[O-])c1`: the displacement turned out to be 2%.
For `CC(=O)OC1CCC2(C)C(=CCC3C2CCC2(C)C3CC3CC=CCC32C(C)=O)C1` (stereo not given), the displacement is -9%.
The value for `COc1ccc(C2CC(=O)C3=C(C2)Nc2ccccc2NC3c2ccc(OC(C)=O)cc2)cc1` (stereo not given) was 5.9%; that for `CCc1c(C)c2ccc(OC(C)=O)c(C)c2oc1=O` was 9.1%.
With `CC(C)CNC(=O)C(=O)Nc1cccc(Br)c1`, the displacement amounted to 32.6%.
The value for `O=C(Nc1ccc([N+](=O)[O-])c(NC(=O)c2ccccc2F)c1)c1ccccc1F` was 7.9%.
The value for `O=C(CSc1cc(Cl)ccc1Cl)Nc1cccc(Br)c1` was 11.5%; that for `O=C(/C=C/c1cccc(C(F)(F)F)c1)Nc1cccc(Br)c1` was 9.7%.
To `CCc1ccc(NC(=O)c2cncc(Br)c2)cc1` belongs 15%; to `O=C(O)CCCCCN1C(=O)C(=O)/C(=C(/O)c2ccc(F)cc2)C1c1cccc([N+](=O)[O-])c1` (stereo not given), -1%; to `COC(=O)c1c(NC(=O)COc2ccc(C)cc2Br)sc2c1C(C(=O)OC)CC2` (stereo not given), 15.7%.
`O=C(Nc1ccc(S(=O)(=O)N2CCCCC2)cc1)c1ccco1`: the displacement was -3%.
Regarding `Cc1ccc(C(=O)CC(O)(c2ccccc2)C(F)(F)F)cc1` (stereo not given), the displacement was 13.1%.

(Values after PubChem BioAssay AID1240 (Sanford-Burnham Center for Chemical Genomics, 2008).)
